Out of some 150,000 compounds screened, about 540 (0.36%) showed an effect of 50% or more. The list shows a part of the results.
These compounds were tested on Plasmodium falciparum (assay: Primary screen in NF54 nanoGlo assay, in single point, at 2uM, 72h; a lower Z score goes with more inhibition). Conditions: timepoint 72 hour.
Format: functional, Erythrocyte
In the case of `Cn1nccc1NC(=O)N1CCCCCCC1`, the “% Inhibition” value is reported as -6% and the Z score is reported as 0.71.
With `CCn1cc(CC(=O)Nc2c[nH]nn2)cn1` the “% Inhibition” value was -5% and the Z score was 0.59.
`O=C(O)[C@@H]1CCCN1C(=O)C1Cc2ccccc2C1` was tested, and the “% Inhibition” value was -5% and the Z score was 0.81.
For `CCOC(=O)c1noc2nc(C)nc(NCc3ccc(F)cc3)c12`, the “% Inhibition” value was -13% and the Z score was 2.52.
For `C/C=C(\C)C(=O)N1CCN(c2nc3nccc(-c4cc(Cl)ccc4Cl)n3n2)CC1`, the “% Inhibition” value was -14% and the Z score was 2.25.
In the case of `Cc1c(C(=O)N2CCC3(CC2)CNC(=O)C3)n(C)c2c(C)cccc12`, the “% Inhibition” value is reported as -1% and the Z score is reported as 0.16.
In the case of `Cc1ccc(C(=O)N(CC2CC2)CC2CN(CC(O)COc3ccccc3C)CCO2)cc1` (stereo unspecified), the “% Inhibition” value is reported as -6% and the Z score is reported as 0.73.
`COc1ccc(N2CCN(C(=O)CN3CCC(c4nc(C)no4)CC3)CC2)cc1` was tested, and the “% Inhibition” value was 0% and the Z score was 0.02.
In the case of `CO[C@H]1[C@H](NC(=O)c2cccs2)c2ccccc2C12CCN(Cc1cccc3cccnc13)CC2`, the “% Inhibition” value is reported as 5% and the Z score is reported as -0.62.
In the case of `Cc1nnsc1C(=O)Nc1cnc(-n2nc(C)c(C)c2C)nc1`, the “% Inhibition” value is reported as -2% and the Z score is reported as 0.38.
With `CCOC(=O)N1CCN(Cc2ccc(N(C)C)nc2)CC1` the “% Inhibition” value was -10% and the Z score was 1.
`CC1CC2CCCCC2N1C(=O)CCC1CCCO1` (stereo unspecified) was tested, and the “% Inhibition” value was 2% and the Z score was -0.35.
For `CCCn1ncnc1CN1CCO[C@@H](CNc2nccn(C)c2=O)C1`, the “% Inhibition” value was 1% and the Z score was -0.09.
In the case of `COCCC1(CNC(=O)N2CC[C@@H](C(F)(F)F)C(C)(C)C2)CCC1`, the “% Inhibition” value is reported as -15% and the Z score is reported as 2.86.
For `CC(C)CCc1csc(Cn2ccc(=O)[nH]c2=O)n1`, the “% Inhibition” value was -13% and the Z score was 1.36.
`COc1ccc(CN2CCC3(CCCC3)C2)cc1F` was tested, and the “% Inhibition” value was -4% and the Z score was 0.69.
With `CN(c1ccn(C)n1)S(=O)(=O)c1ccc(C(F)F)o1` the “% Inhibition” value was 8% and the Z score was -1.36.
For `CC1CCC(OCC(=O)Nc2ccc3nncn3c2)CC1` (stereo unspecified), the “% Inhibition” value was -37% and the Z score was 4.33.
For `C[C@@H]1CN(C(=O)c2nc3sccn3c2CNCCC2=CC[C@H]3C[C@@H]2C3(C)C)C[C@H](C)O1`, the “% Inhibition” value was 0% and the Z score was -0.05.
`Brc1cncc(NCc2nnc3n2CCCCC3)c1` was tested, and the “% Inhibition” value was -16% and the Z score was 2.1.
`Cc1cc(=O)n(Cc2nc([C@H]3CCOC3)no2)nc1C` was tested, and the “% Inhibition” value was -7% and the Z score was 1.06.
For `CN(Cc1ccoc1)C(=O)NC1CCCC1`, the “% Inhibition” value was 4% and the Z score was -0.73.
For `Cn1cccc1CCC(=O)NCCc1nccs1`, the “% Inhibition” value was -9% and the Z score was 1.19.
For `O=C(Nc1ccccc1C(=O)Nc1nnc(C2CC2)s1)c1ccc(Cl)cc1Cl`, the “% Inhibition” value was 0% and the Z score was 0.02.
`Nc1nc(C(=O)N[C@H]2CCCN(C3CCCC3)C2)cs1` was tested, and the “% Inhibition” value was 11% and the Z score was -2.01.
In the case of `CCc1ccc(CNC(=O)c2ccc(-c3cccnc3)nc2)cc1`, the “% Inhibition” value is reported as -29% and the Z score is reported as 5.54.
In the case of `C=CC1(CC(=O)N2CCN(S(=O)(=O)CC)C[C@H]2C)CCCCC1`, the “% Inhibition” value is reported as -9% and the Z score is reported as 1.15.
`CCC(C)c1ccc(O[C@@H]2O[C@@H]3COC(c4ccccc4)O[C@H]3[C@H](O)[C@H]2NC(C)=O)cc1` (stereo partly specified) was tested, and the “% Inhibition” value was -7% and the Z score was 1.06.
With `Cc1ccccc1S(=O)(=O)N1CCC2(CCC(=O)N(C(C)C)C2)CC1` the “% Inhibition” value was -14% and the Z score was 2.02.
In the case of `CCN(C)C(=O)CNc1ncc(F)cn1`, the “% Inhibition” value is reported as -14% and the Z score is reported as 1.17.
For `CCc1ccc(S(=O)(=O)N[C@@H](CC)c2nccs2)s1`, the “% Inhibition” value was -8% and the Z score was 1.17.
With `CCc1ccc(CN=C(N)N(C)C)s1` the “% Inhibition” value was 5% and the Z score was -0.51.
For `O=C1[C@@H]2CCCN2C(=O)N1C1CCN(c2ccccc2)C1` (stereo partly specified), the “% Inhibition” value was 6% and the Z score was -0.99.
With `CC(=O)N1CCc2cc(S(=O)(=O)N3CCC(CC(=O)NCCc4ccccc4)CC3)ccc21` the “% Inhibition” value was -6% and the Z score was 0.59.
In the case of `CCC[C@]1(c2ccccc2)NC(=O)N(Cc2cc(=O)n(C)c(=O)n2C)C1=O`, the “% Inhibition” value is reported as -14% and the Z score is reported as 1.61.
In the case of `C[C@H](Oc1ccccc1)C(=O)N1CCC2(CC1)CC2(F)F`, the “% Inhibition” value is reported as 19% and the Z score is reported as -2.35.
With `COc1ccc(-c2cnc3ncnn3c2N2CCN(S(=O)(=O)c3cccc(Cl)c3Cl)CC2)cc1OC` the “% Inhibition” value was -18% and the Z score was 1.79.
`Cc1nc(C2=C(O)CN(c3ccc(N(C)C)cc3)C2=N)sc1C` was tested, and the “% Inhibition” value was 18% and the Z score was -2.2.
`O=C(N[C@H]1CCN(c2cnccn2)C[C@@H]1O)c1ccc2c(c1)OCO2` was tested, and the “% Inhibition” value was 0% and the Z score was 0.01.
With `CCCCn1ccnc1C1CCN(C(=O)N[C@H](C)c2ccc(F)cc2)CC1` the “% Inhibition” value was -12% and the Z score was 1.16.
With `NC(=O)c1nc(CNC(=O)[C@H]2CCC[C@H](O)C2)no1` the “% Inhibition” value was -8% and the Z score was 0.72.
`CCN(CC)c1cc(-c2c(OC)cc(C)cc2OC)nc(N)n1` was tested, and the “% Inhibition” value was 21% and the Z score was -2.78.
For `Cc1cc2c(NC(=O)NCCN3CC[C@H](c4ccccc4)C3)cccc2nn1`, the “% Inhibition” value was 10% and the Z score was -1.76.

From ChEMBL document CHEMBL4888484, “Replenishing the malaria drug discovery pipeline: Screening and hit evaluation of the MMV Hit Generation Library 1 (HGL1) against asexual blood stage Plasmodium falciparum ,using a nano luciferase reporter read-out” (2022)
